Measured values as given in the RNAGym collection of RNA variant scans (doi:10.7554/elife.90254).
Read counts are not given, so values of variants with three or more changes are uncertain.

B1: OR4K15 (parent)
chain: GUUAACGGUCAUAGGCCAUGGAAACUAGGAGCACCAUUUCGCUGCCAGUGAAGAAAUGAACAAAGAAAAUCUGGGCCAGGCAGGCAUCAAAAGAAAUAGUCUUGCGCUCAACCAGAAAGUCUGUAAUCAUUUUAAGGGUA

Variants of: B1
Assay: self-cleavage, relative activity (ratio to wild type); higher = more cleavage; in vitro, sequencing; the parent is a self-cleaving ribozyme

| Variant | self-cleavage |
| --- | --- |
| A18G A55G A69G U131C | 1.33 |
| U9A U19C U49A | 1.4 |
| U70C A114G A116G | 0.42 |
| U43A U57C G106A U120C U124A U132C | 0 |
| C88A A98G U103C U122C | 0.02 |
| U19A U57G A67G | 0.61 |
| A30U U122C U131C | 0.28 |
| A62U A64G U120C | 0.74 |
| A36G A60G A95G | 1.58 |
| A82G C121A U132C | 0.66 |
| U49C A59G U87C | 0.57 |
| U49C A78U U102C U127C | 0.35 |
| A59G A66G C71A A78G A96C | 0.13 |
| U38A A63U A69G A110C | 0.38 |
| A5U U9A A59G U100C U122A U132C | 2.15 |
| A11G U108A A117G | 0 |
| A5G A69G A78G A94G U132C | 0.17 |
| U19G U39C A90G A98G U120C | 0.51 |
| A82G A89G A110G U122A | 0.06 |
| A13G U37C U131C | 1.45 |
| U49A U72C A125G U133C | 0.1 |
| G41C A51G U102C | 1.28 |
| U9A A18U A22G A68U | 1.49 |
| A47G U103C U120C | 0.12 |

| Variant | self-cleavage |
| --- | --- |
| U9C U39A A59G A89U | 2.01 |
| A18U C45A A66G | 0.73 |
| A23U A68G U70C G137U | 0.78 |
| A54G A69U A78U | 0.12 |
| U26C A59U G99A A117U U120C | 0.1 |
| A27U U43C A67G U72C U87A A96G U132G U139A | 0.15 |
| U19C A33U A56G U70C U87C U103C | 0.2 |
| A30G A62U A95G | 1.69 |
| A30G U39C A110G | 0.11 |
| G8A U19A A64U | 1.69 |
| U57C A59G A66G U72A A118G | 0.09 |
| A69G A92G A116G | 0.77 |
| A18G A63G A64G U108C A129U U132C G138U | 0.01 |
| G15U A54G C81G C105U | 0.01 |
| C40A A51G A52U | 1.02 |
| A4G A30G G65A A96G | 1.12 |
| A13U U37C A129G | 1.33 |
| A51G A82G A89G A111G | 0.04 |
| U49C U102C U120C | 1.32 |
| A24G A92G A116G | 0.07 |
| A94G U127C A129G | 0.54 |
| U70C G74C U127A | 0.1 |
| A54G A68G U132C | 0.35 |
| A18G U108C A135G | 0 |

| Variant | self-cleavage |
| --- | --- |
| A69C A126G U130A | 1.03 |
| U102C A118U U132C | 0.59 |
| A18G A55U A92G | 0.9 |
| A5G C105U U124C | 0.12 |
| A47G A89G A111G | 0.03 |
| C25A U103C A111U A118G U132C | 0.02 |
| A24G U26A A95G U108A | 0.09 |
| A47U C77U U100C A111G | 0 |
| A62G A89G A92G A110C | 0.2 |
| A5U U49G A52G U124C | 1.28 |
| A30G A67G U97A | 0.15 |
| A59G A67G A94G A111C | 0.01 |
| A5U A24G A129G | 0.69 |
| U37C A62G A95G U97G U130C | 0.38 |
| A24G U39C A90G U100C A114G U131C | 0.74 |
| A56C A62G A94G | 1.29 |
| U37C U103C A114U | 0.21 |
| A11U A22C A60G | 0.93 |
| A5U A56G A117G U122C | 1.59 |
| A22G A23G A55G | 0.96 |
| A23U U57C A63G A114C C128A | 0.07 |
| A78G A82U U108A | 0.03 |
| U9C A51U A54G U103C | 1.47 |
| U19C A52G U70C A118G U130A | 0.26 |

| Variant | self-cleavage |
| --- | --- |
| U2C U39C A56G A62G G80A | 0.16 |
| A13G A56G A117G | 0.97 |
| A55C A95G C101U | 1.31 |
| A63G A96G A118G | 1.7 |
| A36U G73A A96G A118U U120A U127C | 0.04 |
| A22G C35U C128U | 0.17 |
| A24G U37C G137U | 1.58 |
| U12C U100G A114G U130C | 0.28 |
| A78C A86G A94U | 0.23 |
| A60G U72C U122C | 0.08 |
| A11G A66G A68G A125G | 0.57 |
| U9C A55G A82G | 0.83 |
| U12C A22G G58A | 0.71 |
| U9C A54U A92U | 1.48 |
| A56G A60G U70C A78C A89G A95G U120C | 0.02 |
| A11G G44A A118G A129G | 0.49 |
| C34A A94G A117G | 2.28 |
| G20A C34U A51U U131C | 0.9 |
| U9C U57A A67U | 0.93 |
| C6U G80A G123A | 0.17 |
| A33G U37C U57G U120G | 2.02 |
| U39C A59G U87A A98U | 1.59 |
| A82U A89G A114G | 0.06 |
| U9G A59G A60G U131C | 1.93 |

| Variant | self-cleavage |
| --- | --- |
| U2C A54G A69G U132G | 1.69 |
| A22G A69G A94G U108C | 0.06 |
| A18U A30C A52G | 0.5 |
| A27G A36U G75C A114G A118G | 0.02 |
| A63G A86U A110G A126G | 0.11 |
| U49C A67G A96G A129U | 0.64 |
| A23G A78G A82G A86G | 0.09 |
| A66G A92G A117U | 0.6 |
| U19C A22U A64G | 0.86 |
| U2A A82G U102C U120C U131C | 0.57 |
| A18G U19A G41U A78G U100C U120A | 0.62 |
| A27G U38C A54G C71A | 0.25 |
| A5G A56G A78C U102C A111G | 0.02 |
| A22U U38C A78G U102A | 0.07 |
| A18U A66G U72C A78G A92G | 0.14 |
| A63G A66U A90G U108C | 0.04 |
| U37C C46U A52G | 1.8 |
| A23U A59G A63G A64G | 1.64 |
| A27G U37C G48A A67G U103C U108C A116G A117G U139C | 0 |
| A33U G50A A60G U87C C88U U133A | 1.11 |
| U49C A116G A129G | 0.29 |
| U26C A51G U72C A111U U120A U131C | 0.01 |
| A22U A56G C105G | 0.05 |
| A67G U87C A96U A126U | 1.09 |

| Variant | self-cleavage |
| --- | --- |
| A5G C46U A82U A89C U108C | 0.02 |
| C46U A129G U139A | 1.79 |
| G79C A86G U103C | 0.03 |
| C40A G83A A96G | 2.43 |
| A22G A24G A55G A59G A92G | 0.71 |
| A23G U49C A63U U127C | 0.95 |
| A36G A92G A126G | 1.03 |
| A23G A111G A116U | 0.01 |
| C34U A116G U122C | 0.29 |
| A18G A27G A54G U103C U124C A126U U132C | 1.2 |
| A89U A94U U132C | 1.83 |
| A47U U49A U120C | 0.25 |
| U103C A110G U132C | 0.09 |
| A27G A51G A56G A67G A78G A89G U108C U133C | 0.02 |
| G15C G58A A135G | 1.58 |
| U9C G48U A90G | 1.5 |
| U2C U100C A118G | 1.45 |
| A18G A66G U131C | 1.38 |
| A92G U100C U124A | 1.1 |
| U3A A4G A54U A67G | 0.76 |
| A23G A24G U43C A60G | 0.86 |
| A27G U39C A55U A117C | 0.24 |
| A11U A54G A126U U127A | 0.74 |
| A56G C107A G115U | 0.01 |

| Variant | self-cleavage |
| --- | --- |
| A51G A55G U131C A134G | 1.69 |
| G41A A82G A91G U122A | 0.07 |
| A51U A63G A64C U132C | 0.07 |
| A63G U70C A91G | 0.64 |
| U2C U19C A24G A60U A82G A95G A98G U132A | 0.38 |
| A23G A36C U37C A67G A89U | 1.57 |
| A18G U49C U72A A95G U139G | 0.24 |
| A30G A96G A98G U103C U122C | 0.03 |
| U2C U39A A91G G138C | 0.74 |
| A33G A94G U124A | 0.49 |
| A30G A111G U133A | 0.02 |
| A47G A54U U131C | 1.16 |
| A52G A66U A111G U120C | 0.01 |
| C6U A51G U102C C107U A118G | 0.01 |
| A22G A27G A51G U127C A135G | 0.05 |
| A60G A69G A82U | 0.18 |
| A5C A92G U102C U127C | 0.36 |
| U2C U49A A59G A90G A91U | 1.08 |
| A33U A47G G74U U102C | 0.11 |
| U39C A125G U139C | 0.65 |
| U12A A52G A56G A69G | 0.19 |
| A11C A94U U131C | 1.9 |
| A33G A56G A60G U127A | 1.78 |
